{"source": "PubChem BioAssay (Tox21)", "key": {"[1]": {"experiment": "qHTS assay for identifying genotoxic compounds that show differential cytotoxicity against isogenic chicken DT40 cell lines with known DNA damage response pathways - wild type cell line (AID 743012); also: potency is read from the fitted curve at half-maximal effect; nearly all actives have a fitted effect of over 60% in size", "details": "DT40 wild type chicken cells viability, CellTiter-Glo, 40 h; activity change, negative = cytotoxicity: at 68.4 µM (top of the series) unless noted", "outline": "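Parental DNA repair-proficient DT40 cells, 300 per well, were pre-incubated ~0.5 h at 37 C/5% CO2, pin-dosed with compounds in DMSO, then incubated 40 h. Viability was read as CellTiter-Glo luminescence after 30 min at room temperature.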"}, "[2]": {"experiment": "qHTS assay for identifying genotoxic compounds that show differential cytotoxicity against isogenic chicken DT40 cell lines with known DNA damage response pathways - Rev3 mutant cell line (AID 743014); also: potency is read from the fitted curve at half-maximal effect; nearly all actives have a fitted effect of over 55% in size", "details": "chicken DT40 Rev3-/- viability, CellTiter-Glo, 40 h; series mostly up to 68.4 µM"}, "[3]": {"experiment": "qHTS assay to identify small molecule antagonists of the thyroid receptor (TR) signaling pathway - cell viability counter screen (AID 743064); also: potency is read from the fitted curve at half-maximal effect; nearly all actives have a fitted effect of over 50% in size", "details": "GH3.TRE-Luc viability, CellTiter-Fluor, 24 h; activity change, negative = cytotoxic: at 70.3 µM (top of the series) unless noted", "outline": "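CellTiter-Fluor readout, 30 min at 37 °C/5% CO2, following 23.5 h incubation of GH3.TRE-Luc cells with test compound and 1 nM T3 (final).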"}, "[4]": {"molecular_target": "Estrogen receptor (Homo sapiens) (UniProt P03372)", "sequence (P03372 whole entry, looked up)": "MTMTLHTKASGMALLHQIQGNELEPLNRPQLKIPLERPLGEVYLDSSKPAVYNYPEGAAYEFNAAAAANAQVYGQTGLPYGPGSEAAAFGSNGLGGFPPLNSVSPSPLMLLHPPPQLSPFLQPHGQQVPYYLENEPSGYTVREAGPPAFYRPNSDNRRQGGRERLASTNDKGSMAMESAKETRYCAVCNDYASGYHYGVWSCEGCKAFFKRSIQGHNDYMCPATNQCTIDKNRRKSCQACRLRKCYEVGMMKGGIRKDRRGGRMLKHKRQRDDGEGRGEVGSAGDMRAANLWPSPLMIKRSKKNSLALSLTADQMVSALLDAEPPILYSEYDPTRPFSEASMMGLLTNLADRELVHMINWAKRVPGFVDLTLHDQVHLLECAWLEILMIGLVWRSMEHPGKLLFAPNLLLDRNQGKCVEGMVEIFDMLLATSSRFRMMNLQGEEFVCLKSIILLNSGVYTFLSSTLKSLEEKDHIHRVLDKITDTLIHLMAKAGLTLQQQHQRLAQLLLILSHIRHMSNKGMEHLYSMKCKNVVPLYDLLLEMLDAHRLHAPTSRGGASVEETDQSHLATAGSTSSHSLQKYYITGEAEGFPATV", "experiment": "qHTS assay to identify small molecule antagonists of the estrogen receptor alpha (ER-alpha) signaling pathway (AID 743069; active = well fitted curve in the direction sought with a large enough effect in the signal ratio in the repeat runs, not every such curve was filed as active; inconclusive = weak or mixed curves, or effect the other way; inactive = no such curve, though single readings can be large or run the other way; the % refers to the signal ratio; also: potency is read from the fitted curve at half-maximal effect)", "details": "HEK293 ER-alpha-UAS-bla, beta-lactamase ratio, antagonist mode", "outline": "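HEK293 ER-alpha-UAS-bla GripTite cells, held overnight in 2% charcoal-stripped FBS, 5,000 cells/well, preincubated 4 h, then compound plus 17beta-estradiol for 18 h at 37C. Beta-lactamase read by LiveBLAzer B/G FRET substrate, 2 h at room temperature.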"}, "[5]": {"experiment": "qHTS assay to identify small molecule antagonists of the estrogen receptor alpha (ER-alpha) signaling pathway - cell viability counter screen (AID 743074; calls by dose curve; also: potency is read from the fitted curve at half-maximal effect; nearly all actives have a fitted effect of over 45% in size)"}, "[6]": {"experiment": "qHTS assay to identify aromatase inhibitors - cell viability counter screen (AID 743084);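 also: cells stimulated with testosterone during compound exposure; potency is read from the fitted curve at half-maximal effect; nearly all actives have a fitted effect of over 55% in size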", "details": "MCF-7 aro ERE viability, CellTiter-Fluor, 24 h; activity change, negative = cytotoxicity: at 70.3 µM (top of the series)"}, "[7]": {"experiment": "qHTS assay to identify small molecule antagonists of the thyroid receptor (TR) signaling pathway (AID 743065); also: nearly all actives have a fitted effect of over 55% in size", "outline": "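GH3.TRE-Luc rat pituitary cells (two TREs driving luciferase) were dosed with compound, then stimulated with 1 nM T3 (final) for 23.5 h at 37 C. ONE-Glo luminescence was the read-out, with CellTiter-Fluor fluorescence as the cytotoxicity counter-screen.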"}, "[8]": {"molecular_target": "Estrogen receptor (Homo sapiens) (UniProt P03372)", "experiment": "qHTS assay to identify small molecule agonists of the estrogen receptor alpha (ER-alpha) signaling pathway using the BG1 cell line (AID 743079); also: potency is read from the fitted curve at half-maximal effect; nearly all actives have a fitted effect of over 20% in size", "details": "BG1Luc4E2 cells, ERE-luciferase agonist, 22 h"}, "[9]": {"experiment": "qHTS assay to identify small molecule antagonists of the estrogen receptor alpha (ER-alpha) signaling pathway using the BG1 cell line (AID 743080; calls by dose curve; also: nearly all actives have a fitted effect of over 25% in size)", "details": "BG1Luc4E2 ERE-luciferase antagonist mode, luminescence", "outline": "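Luminescence from a 4×ERE-luciferase reporter in BG1-Luc-4E2 cells served as read-out. Cells, pre-cultured 5 days in stripped-serum phenol-red-free medium, were exposed to compound with 17beta-estradiol co-stimulation for 21.5 h at 37 C.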"}, "[10]": {"experiment": "qHTS assay to identify small molecule antagonists of the estrogen receptor alpha (ER-alpha) signaling pathway using the BG1 cell line - cell viability counter screen (AID 743081);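 also: compound given together with 17beta-estradiol as the ER stimulus; nearly all actives have a fitted effect of over 45% in size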"}}, "note": "“And” between values parts separate entries of the source, which are not always exact repeats. Equal entries are not always repeated. The shares of active, inactive and inconclusive entries below differ from those in the screen. For some assays here: A potency beside an inconclusive call is a rough fit, not a confirmed value. A structure can be active in one record and inactive in another. The source made the active and inactive calls. Unless noted, calls follow the shape of the dose curve; as a rule, active = well fitted curve in the direction sought with a large enough effect in the repeat runs; inconclusive = weak or mixed curves; inactive = no such curve, though single readings can be large; an effect the other way counts as inactive or inconclusive. Tags tell the direction and shape of the fitted curve or compound fluorescence and quenching.", "data": [{"smiles": "O=c1[nH]cc(F)c(=O)[nH]1", "values": [{"measurement": "Potency", "setting": "[1]", "result": "inconclusive: 7990 nM [rising, partial curve]"}, {"measurement": "Potency", "setting": "[2]", "result": "inconclusive: 33.5 µM [cytotoxic, single point]"}, {"measurement": "Potency", "setting": "[3]", "result": "inconclusive: 9.44 µM [cytotoxic, full curve] and active: 20.1 µM and inconclusive: 27.9 µM [cytotoxic, partial curve]"}, {"measurement": "Potency", "setting": "[4]", "result": "inconclusive: 36 µM [activator, partial curve, poor fit] and inconclusive: 44.6 µM [activator, partial curve]"}, {"measurement": "Potency", "setting": "[5]", "result": "inconclusive: 22.7 µM [cytotoxic, single point]"}, {"measurement": "Potency", "setting": "[6]", "result": "inconclusive: 62.5 µM [cytotoxic, partial curve, poor fit]"}]}, {"smiles": "Oc1cccc2ccccc12", "values": [{"measurement": "Potency", "setting": "[1]", "result": "inconclusive: 498 nM [rising, full curve]"}, {"measurement": "Potency", "setting": "[2]", "result": "inconclusive: 99.5 µM [cytotoxic, partial curve, poor fit]"}, {"measurement": "Potency", "setting": "[5]", "result": "inconclusive: 27.5 µM [rising, partial curve, poor fit]"}]}, {"smiles": "Cc1cccc(C)c1", "values": [{"measurement": "Potency", "setting": "[1]", "result": "inconclusive: 167 nM [rising, full curve, poor fit]"}, {"measurement": "Potency", "setting": "[2]", "result": "inconclusive: 66.3 µM [cytotoxic, single point] and inconclusive: 66.5 µM [cytotoxic, partial curve]"}, {"measurement": "Potency", "setting": "[7]", "result": "inactive"}, {"measurement": "Potency", "setting": "[8]", "result": "active: 26.5 µM"}]}, {"smiles": "C/C=C/C(=O)N(CC)c1ccccc1C", "values": [{"measurement": "Potency", "setting": "[1]", "result": "inconclusive: 10.1 µM [cytotoxic, partial curve] and active: 54.5 µM"}, {"measurement": "Potency", "setting": "[2]", "result": "inconclusive: 14.3 µM [cytotoxic, partial curve, poor fit]"}, {"measurement": "Potency", "setting": "[9]", "result": "inactive"}, {"measurement": "Potency", "setting": "[10]", "result": "inactive"}]}]}
